PubChem BioAssay
Inconclusive means that the source gave no clear call. Such entries were picked first, then a sample of the others. Activity calls are given as the source filed them.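 How the source made its calls, unless noted: active means cell viability at or below a set limit in both duplicate runs, the limit being the all-compound median minus 4 SD (cut at about 23% in these data, passing the limit was not always enough); inconclusive means no clear call, values can overlap the other calls; inactive means the rest.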

Tests used:
[1] = viability of HCT116 without oncogenic beta-catenin – human colon tumor cells, pilot screen (AID 823); conditions: HCT116 beta-catenin knockout viability, CellTiter-Glo, 60 h; at 10 µM; stronger effect = lower value;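 further: 0% = wells killed by 20 µM Hyamine and 100% = untreated DMSO cell wells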
[2] = viability of PTEN-null HCT116 cells – cell-based, HCT116 clonal line, CellTiter-Glo, pilot screen (AID 824;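 active means viability at or below 27.92% in each of two runs, the all-compound median minus 4 SD; inconclusive means no clear call, values can overlap the other calls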;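 further: 0% = 20 µM Hyamine control and 100% = vehicle cell control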); conditions: HCT116 PTEN-deleted viability, 60 h, at 10 µM, stronger effect = lower value

SMILES	viability [1]	viability [2]
O=C1NC(=O)C(CC(=O)N(Cc2ccco2)C2(C(=O)NC3CCCC3)CCCCC2)N1 (centres undefined)	inconclusive: 89.3%	
CCOC(=O)c1cc2c(=O)n3ccccc3nc2n(CCOC)c1=NC(=O)c1ccncc1	inconclusive: 89.7%	
COc1cc2c(cc1NC(C)=O)CCCC2	inconclusive: 94.2%	
COc1ccc(C2(O)CCN(C(=O)Cc3cccnc3)CC2)cc1	inactive: 99.3%	
CCOC(=O)N1CCN(C(=O)c2oc3ccc(S(=O)(=O)N4CCOCC4)cc3c2C)CC1	inconclusive: 104%	
COc1cc(-c2nnc(COc3ccc4cc(Br)ccc4c3)o2)cc(OC)c1OC	inactive: 62.9%	
COc1ccc(C(C(=O)NC2CCCCC2)N2CCC3(CC2)OCCO3)cc1 (centres undefined)	inconclusive: 92.1%	
Cc1cc(C)c(C)c(S(=O)(=O)Nc2ccccc2C(=O)NCCCn2ccnc2)c1C	inactive: 70.2%	inconclusive: 70.1%
Cc1ccc(C)n1-c1ccc(N2CCOCC2)cc1	active: 8.5%	active: 8.6%
CC1=C(C(=O)Nc2ccccc2)C(c2ccco2)C(C#N)=C(SCc2ccccc2)N1 (centres undefined)	active: 11.8%	active: 9.06%
CCOC(=O)COc1cccc2c(=O)n(CC(=O)NCc3ccc4c(c3)OCO4)ccc12	inconclusive: 22%	active: 27.3%
CCC(=O)Nc1cc(C)c(NC(=O)c2ccco2)cn1	inactive: 98.5%	inconclusive: 92%
O=C(CCS(=O)(=O)c1ccccc1)Nc1nc2c(s1)COc1ccccc1-2	active: 5.88%	inconclusive: 22.7%
COc1ccccc1-n1c(SCC(=O)Nc2nnc(C)s2)nc2c(c1=O)SCC2	inconclusive: 91.3%	inactive: 80.6%
Cc1ccc(Cl)cc1N(CC(=O)N1CCCCCC1)S(C)(=O)=O	inconclusive: 102%	inactive: 93.4%
CCn1c(=O)c(=O)[nH]c2cc(C(=O)NC3CCCc4ccccc43)ccc21 (centres undefined)	inconclusive: 21.2%	inconclusive: 26.7%
O=C(CSc1oc(-c2ccc(F)cc2)nc1S(=O)(=O)c1ccc(F)cc1)NCC1CCCO1 (centres undefined)	inconclusive: 22.9%	inconclusive: 24.8%
Cc1cc(C)c2c(=O)n(CC(=O)N3CCC(N4CCCCC4)CC3)sc2n1	active: 2.7%	active: 16.2%
O=C(CN1C(=O)c2ccccc2S1(=O)=O)N1CCN(c2ccccc2F)CC1	inconclusive: 98.8%	inactive: 101%
Cc1onc(-c2ccccc2Cl)c1C(=O)N1CCN(c2cccc(Cl)c2)CC1	inconclusive: 20%	active: 22%
Cc1ccc(/C=N/c2sc3c(c2C#N)CCC3)s1	inactive: 96.1%	inactive: 93.8%
Cc1ccccc1C(=O)Nc1nnc(-c2ccc(F)cc2)o1	inactive: 33%	inconclusive: 28.6%
O=C1CC(c2ccco2)CC2=C1C1c3ccccc3C(=O)N1c1ccccc1N2 (centres undefined)	active: 7.74%	active: 7.59%
CCOC(=O)c1c(NC(=O)c2ccc(Cl)s2)sc(C)c1C	active: 12.6%	inconclusive: 28.6%
COc1ccc(-c2nc(N3CCOCC3)nc3n[nH]c(N)c23)cc1	inactive: 74.7%	inconclusive: 71.4%

SMILES	viability [1]	viability [2]
COc1ccc(S(=O)(=O)Cc2ccc(C(=O)N3CCN(c4ccc(Cl)cc4)CC3)o2)cc1	inconclusive: 32.9%	inconclusive: 30.7%
O=C(CCCSc1nc2ccccc2s1)NCc1ccco1	inconclusive: 82.9%	inactive: 86.3%
S=c1nc(-c2ccccc2)n(CCCN2CCOCC2)c2c1CCCC2	inactive: 103%	inconclusive: 86.2%
CCCCC1CC(CSc2ncn[nH]2)OC1=O (centres undefined)	inconclusive: 102%	inactive: 98%
Cc1cccc(N2CCN(C(=O)c3cc4c(=O)n(C)c5ccccc5c4n3C)CC2C)c1 (centres undefined)	inconclusive: 35.8%	inconclusive: 46.3%
CN1C(=O)C(O)(CC(=O)c2ccccn2)c2cc(Br)ccc21 (centres undefined)	inconclusive: 25.2%	inconclusive: 28.5%
CCOC(=O)C(C(=O)OCC)c1cc(Br)c2noc3c2c1C(=O)c1ccccc1-3	active: 1.06%	active: 1.23%
CCn1c(=O)cc(C(=O)OC)sc1=Nc1ccc(F)c(F)c1	active: 18.6%	inconclusive: 24%
Cc1cc(C)n(-c2nc(NC(C)(C)C)nc(NC(C)(C)C)n2)n1	active: 8.58%	active: 11.2%
COc1ccccc1N1CCN(Cc2cc(Br)c(O)c3ncccc23)CC1	active: 6.37%	active: 6.17%
OC(COc1ccc2ccccc2c1)CN1CCN(c2ccc(F)cc2)CC1 (centres undefined)	inactive: 81.7%	inactive: 84.4%
CCOC(=O)Cn1c(C)cc(=O)c2cccc(C)c21	inactive: 92%	inactive: 96.9%
COc1ccc(C(=O)Nc2ccccc2-c2nnn(CC(=O)NCc3ccco3)n2)cc1	inactive: 78%	inconclusive: 82.3%
O=c1cc(NCc2ccco2)c2ccccc2o1	inconclusive: 109%	inactive: 96.7%
COCCNC(=O)NC1(C(F)(F)F)Oc2ccc(Cl)cc2O1 (centres undefined)	inconclusive: 29.2%	inactive: 41.9%
Cc1oc(-c2cccc(Cl)c2)nc1CN1CCC(C(=O)N2CCN(c3ccccn3)CC2)CC1	inconclusive: 23.6%	active: 27%
COc1ccc2cc3c(N)nn(C(=O)Cc4ccccc4OC)c3nc2c1	active: 2.78%	active: 5.52%
O=C(c1ccc(CN2CCOCC2)cc1)N1CCC(Cc2ccccc2)CC1	inconclusive: 100%	inactive: 93.1%
O=C(Nc1nc2ccccc2n1CCOc1ccc(Cl)cc1)c1ccco1	active: 11.8%	active: 16.8%
CCn1cc(C(=O)N2CCN(c3ccccn3)CC2)c2cc(OC)c(OC)cc2c1=O	inactive: 104%	inconclusive: 96.3%
CCCSC1=N/C(=C\c2ccsc2)C(=O)S1	inactive: 95.1%	inactive: 99.2%
C=CCn1c(C)cc(C(=O)COc2nncc3ccccc23)c1C	inconclusive: 76.1%	inactive: 74.2%
Cc1ccccc1Cn1cc(S(=O)(=O)CC(=O)Nc2nccs2)c2ccccc21	inactive: 70.4%	inconclusive: 73.5%
CN(C)CCNc1ncnc2c1cnn2-c1ccc(Cl)cc1	active: 4.33%	active: 4.63%
COc1ccc(Cn2c(=O)n(Cc3ccco3)c(=N)c3c4c(sc32)COC(C)(C)C4)cc1	inactive: 66.2%	inconclusive: 66.2%

SMILES	viability [1]	viability [2]
O=C(CCS(=O)(=O)c1ccccc1)Nc1nc(-c2ccccn2)cs1	active: 8.11%	active: 6.03%
COc1cc(NS(=O)(=O)c2ccc(NC(=O)COc3ccc(C)cc3)cc2)nc(OC)n1	inconclusive: 105%	inactive: 102%
O=C(Nc1nnc(-c2cccs2)o1)c1cccc(Oc2ccccc2)c1	inconclusive: 23.1%	inconclusive: 26.7%
C=CCn1c(=O)[nH]c2cc(C(=O)N3CCN(c4cccc(Cl)c4)CC3)ccc2c1=O	inactive: 79.3%	inconclusive: 85.9%
Cc1cc(C)n(-c2nnc(C)n2/N=C/c2ccccc2OCc2ccccc2Cl)n1	active: 22.2%	inconclusive: 27%
CC1CCN(CCNC(=O)c2ccc(NC(=O)C3CCCO3)cc2)CC1 (centres undefined)	inactive: 103%	inconclusive: 88.2%
CCCCN1C(=O)C(O)(CC(=O)c2ccco2)c2cc(Br)ccc21 (centres undefined)	inconclusive: 19.4%	active: 11.5%
CSc1nc2c(cnn2-c2ccc(C)c(C)c2)c(=O)[nH]1	inconclusive: 20.8%	inconclusive: 50.8%
Cc1ccc2c(c1)c(C)c(C)n2CC(O)Cn1nc(C)cc1C (centres undefined)	inactive: 87.1%	inconclusive: 96.9%
Cc1sc(NC(=O)c2ccco2)c(C(c2cccnc2)N2CCN(c3ccc(F)cc3)CC2)c1C (centres undefined)	active: 13.3%	inconclusive: 26.3%
CN(CC1CCCO1)S(=O)(=O)c1ccc(C(=O)Nc2nc(-c3ccccn3)cs2)cc1 (centres undefined)	active: 18.5%	active: 23.1%
N#CC1=C(N)Oc2cc(O)ccc2C1C1CCCCC1 (centres undefined)	inconclusive: 29.9%	inconclusive: 26.6%
Cc1ccc(N=C2SCCCN2C(=O)c2ccco2)cc1Cl	inactive: 87.6%	inconclusive: 90.7%
CCN1CCCC1CNC(=O)c1cc2c(-c3ccc(Cl)cc3)nn(C)c2s1 (centres undefined)	active: 2.03%	active: 2.04%
Cc1nc(N2CCN(Cc3ccc4c(c3)OCO4)CC2)c2oc3ccccc3c2n1	inconclusive: 26%	inconclusive: 30.6%
CN1C(=O)C(O)(CC(=O)c2ccccc2O)c2cc(Br)ccc21 (centres undefined)	inconclusive: 32.3%	inconclusive: 40.1%
Cc1ccnc(N2C(=O)c3ccccc3C2Nc2ccccc2Cl)c1 (centres undefined)	inactive: 84.9%	inactive: 92.5%
O=C(O)C1CC=CCC1C(=O)Nc1cccc(Cl)c1Cl (centres undefined)	inactive: 99.6%	inactive: 101%
N#Cc1ccc(NC(=O)Nc2ccc(Cl)cc2)cc1	active: 6.71%	active: 7.35%
CC1=CC(C)(C)Nc2ccc(OC(=O)c3ccco3)cc21	active: 0.49%	active: 0.6%
CCS(=O)(=O)C(=C(Nc1ccc(OC)cc1)Nc1ccc(OC)cc1)S(=O)(=O)CC	inconclusive: 96.5%	inactive: 95.3%
COc1cc2c(cc1OC)C(C(=O)Nc1cccc(C)n1)C(c1cccnc1)N(C)C2=O (centres undefined)	inactive: 91.7%	inconclusive: 97%
CC1CN(S(=O)(=O)c2ccc(C(=O)Nc3nnc(-c4ccc5c(c4)CCCC5)o3)cc2)CC(C)O1 (centres undefined)	active: 21.1%	active: 19.7%
